From the BET-seq Pho4 binding data (Le et al. 2018)
The list shows a part of the results. Values were computed here from the reads of four pooled replicates and scatter widely.

Each sequence was assayed against T1, Pho4 (S. cerevisiae) (UniProt P07270) (assay: relative binding free energy (BET-seq); higher = weaker binding). Conditions: reference: library average.
T1 sequence: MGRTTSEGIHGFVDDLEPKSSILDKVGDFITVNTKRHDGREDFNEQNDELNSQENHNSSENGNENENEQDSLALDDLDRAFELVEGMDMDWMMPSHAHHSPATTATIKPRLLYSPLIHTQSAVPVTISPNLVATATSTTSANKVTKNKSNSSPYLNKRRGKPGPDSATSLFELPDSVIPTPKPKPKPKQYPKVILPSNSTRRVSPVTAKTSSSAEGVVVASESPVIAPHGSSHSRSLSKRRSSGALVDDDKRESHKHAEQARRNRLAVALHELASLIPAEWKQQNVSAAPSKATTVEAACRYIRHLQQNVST

Row | Sequence | relative binding free energy [kJ/mol]
1 | GCTCTCACGTGTTGGG | 1.38
2 | TACGGCACGTGTGGAA | 0.126
3 | TACTTCACGTGATGTG | 0.669
4 | TTCTTCACGTGAAGTA | 1.34
5 | CATGTCACGTGTTAAG | 0.711
6 | TGTTGCACGTGCGAGA | 0.46
7 | ATTAACACGTGGCTTT | -0.418
8 | TGGGACACGTGAGAGC | 0.92
9 | TCTTGCACGTGGCGTT | -0.628
10 | AACGGCACGTGCTGGG | -0.669
11 | GCGTGCACGTGATGGG | 0.502
12 | TATTGCACGTGGGATA | -0.544
13 | TTCGGCACGTGTTAGA | -0.209
14 | TTGAACACGTGTGTCA | 0.335
15 | TAAGGCACGTGAAGGG | 0.502
16 | AAGAGCACGTGAGAGG | 0.167
17 | TATGGCACGTGTTTTA | -0.377
18 | AATGGCACGTGCGGCT | -0.126
19 | GGTTTCACGTGGGCCA | 0.879
20 | CGTGGCACGTGCAGAG | 0
21 | GTTGTCACGTGGTCTG | 0.0837
22 | ATTAGCACGTGGGTTC | -0.879
23 | TATGACACGTGGCGTG | -0.502

Row | Sequence | relative binding free energy [kJ/mol]
24 | GTTGACACGTGTGGAG | 0.962
25 | AGGTTCACGTGCGGCT | 0.837
26 | TTTTACACGTGGTCTT | 0.586
27 | GTTCTCACGTGGTTTA | 1.13
28 | TTCTGCACGTGTCAGG | 0.209
29 | TGAAGCACGTGTAGCG | 0
30 | ATTTTCACGTGGTAAT | 1.26
31 | TGCTGCACGTGCATGG | -0.0837
32 | TAATGCACGTGTCTGG | 0.126
33 | CTGGTCACGTGGGTTT | 0.126
34 | TGTCACACGTGTGCGG | 0
35 | TGGTGCACGTGAGTTT | 0.837
36 | AATGTCACGTGGCATT | 0
37 | AGTTCCACGTGATGTA | 0.669
38 | AAATTCACGTGTAGCG | 1.59
39 | TAGGTCACGTGAACGG | 1.46
40 | GAGTTCACGTGGTTTG | 1.3
41 | GGGTTCACGTGCGGAC | 1.05
42 | CGAGGCACGTGCGGTA | -0.753
43 | TGTTTCACGTGGTTCA | 0.92
44 | TTATGCACGTGGGTAG | -0.711
45 | ACGTACACGTGGTTGT | -0.251
46 | TAAGTCACGTGTGGAG | 0.46

Row | Sequence | relative binding free energy [kJ/mol]
47 | TGGTTCACGTGGGGCC | 0.293
48 | GATTACACGTGCGTGG | 0.711
49 | GTTAGCACGTGTTCTT | 0.293
50 | TTGTGCACGTGGAATT | -0.0418
51 | GAAGTCACGTGAGGTG | 1.21
52 | CGAGGCACGTGGGCGT | -0.795
53 | AACGTCACGTGAGGTT | 0.837
54 | CGATTCACGTGGGTAT | 0.544
55 | ATAGTCACGTGAATGT | 0.837
56 | CGTAGCACGTGTCGGG | -0.126
57 | TGTAGCACGTGGGAAC | -0.46
58 | TGTTTCACGTGTTAAA | 0.962
59 | ATTGGCACGTGTATCG | -0.377
60 | TCTGGCACGTGGTTAA | -0.586
61 | GTGGGCACGTGCGACG | -0.293
62 | TGGTCCACGTGTTTGA | 0.293
63 | TAGTGCACGTGGATGC | 0.167
64 | CGGTGCACGTGATGGA | -0.0418
65 | TGATTCACGTGGTAGG | 0.795
66 | ATGTTCACGTGCTGTG | 1
67 | TTGGTCACGTGGATAA | 0.46
68 | TTTCTCACGTGCTTTT | 1.13
69 | CGAATCACGTGTGTGG | 0.586

Row | Sequence | relative binding free energy [kJ/mol]
70 | GTTTGCACGTGAACGG | 0.879
71 | GCTAGCACGTGGCGGT | -0.46
72 | GGAGACACGTGTATTG | 0.251
73 | TGTTACACGTGGTTGG | -0.126
74 | CGTTTCACGTGCGGTT | 1.46
75 | GGTAGCACGTGTACTT | 0.628
76 | TGTGGCACGTGATTGG | -0.209
77 | TTGGCCACGTGGGGGA | -0.502
78 | GGTTCCACGTGCGTTT | 0.167
79 | TGCCACACGTGCGGGG | 0.167
80 | TTCTGCACGTGTGTAA | -0.0837
81 | AAGGGCACGTGTACGG | -0.0418
82 | TGCAGCACGTGTTGGG | -0.46
83 | AGGGCCACGTGTATAG | 0.0418
84 | TTTGTCACGTGTTTCG | 0.544
85 | AAATGCACGTGATGTG | 0.126
86 | AATGTCACGTGTAGGG | 0.795
87 | ACTTACACGTGGGGTG | -0.795
88 | TGCGGCACGTGAAGGG | 0.377
89 | TGTGACACGTGTCGAG | 0.418
90 | GTATACACGTGTATGG | 0.502
91 | TGCGCCACGTGGTGAG | -0.502
92 | TTATGCACGTGTCAGT | -0.209

Row | Sequence | relative binding free energy [kJ/mol]
93 | TTGAACACGTGCGGTA | -0.502
94 | GGCCGCACGTGTTAGT | 0.377
95 | ATTTACACGTGACGGT | 0.544
96 | TAAATCACGTGCTGTT | 0.167
97 | GGCCTCACGTGGGGGC | -0.0837
98 | ACGTACACGTGAGGTT | 1.05
99 | GTTAGCACGTGCGGGG | -0.544
100 | GTATGCACGTGTTTCA | -0.251
101 | CGTTACACGTGGGGGG | -0.293
102 | GTTTGCACGTGTAGGT | 0.209
103 | GACGTCACGTGCGTGG | 0.711
104 | GTGAACACGTGAAGTG | 1.3
105 | AGGTACACGTGCGCGG | -0.46
106 | TGTAACACGTGATTGT | 0.586
107 | CGACGCACGTGGAGGG | -0.418
108 | TTAGTCACGTGCGTCA | -0.0418
109 | CTGAGCACGTGGTGTG | -0.628
110 | TTTGACACGTGTAGGG | -0.669
111 | ATTCGCACGTGGGGGC | -0.335
112 | TTGAGCACGTGGGCAA | -0.711
113 | GGTTACACGTGGGATG | 0.669
114 | GTGGGCACGTGATTCG | 0.502
115 | TGTATCACGTGGTTTC | 0.753
